SMILES strings stand for the structures. Screen size: about 52,000 compounds; about 1,700 (3.3%) were called active. Rule as the data show it: active = survival mostly below about 52% (no sharp cut-off); inactive = mostly above about 56%. This is one part of the list.

The assay has as its system Wild type. Kind of assay: growth inhibition of S. aureus wild type versus tarO mutant, primary screen, teichoic acid synthesis inhibitors, RN4220, OD600 (AID 463173). The note with it: S. aureus RN4220 wild type/DeltatarO growth, OD600, 18 h, stronger effect = lower value, screened at 18.75 µg/mL (by protocol).
Regarding `Cc1ccc(C)c(CSc2cn(CC(=O)N3CCCCCC3)c3ccccc23)c1`, the survival was inactive: 90%. As for `COc1cccc(N2C(=O)CSC23C(=O)N(Cc2ccccc2)c2ccccc23)c1` (stereo unspecified), the figure is inactive: 69%; as for `COCCNC(=O)c1ccc(-n2c(-c3ccccc3)cc3c2CCCCC3)cc1`, inactive: 132%; as for `COc1ccc(NC(=O)CCCc2nnc3n(CCC(C)C)c(=O)c4sccc4n23)c(OC)c1`, inactive: 96%. Under `COc1ccc(-c2csc3nc(-c4ccc(F)cc4)oc(=O)c23)cc1` stands inactive: 70%; under `COc1ccc(OCC2Cn3c(nc4c3c(=O)n(C)c(=O)n4C)O2)cc1` (stereo unspecified), inactive: 100%; under `COc1cccc(Cn2c(CNC(=O)Cc3cccc(C)c3)nc3cccnc32)c1`, inactive: 75%. Under `COc1ccc(C2=C(C)C(=NCCCN3CCN(c4cc(C)ccc4C)CC3)NS2(=O)=O)cc1` stands inactive: 84%; under `COc1ccc(N(CC(=O)Nc2cccc(Cl)c2C)S(=O)(=O)c2c(C)nn(C)c2C)cc1`, inactive: 82%. Take `Cc1ccc(NC(=O)c2cccc3c2C(=O)N(C2CCCCC2)C3)c(C)c1`: the survival was inactive: 121%.

In the case of `CC(C)N(C(=O)CSc1nnc(NC(=O)c2ccco2)s1)C(C)C`, the survival was inactive: 95%. Under `COc1ccccc1-c1nc2c(c(SCC(=O)Nc3ccc(C)c(C)c3)n1)Cc1c(CO)cnc(C)c1O2` stands inactive: 53%. Take `O=C(c1cc2c(s1)-c1ccccc1OC2)N1CCN(c2ccccc2F)CC1`: the survival was inactive: 53%. As to `Cc1c(C)n(C)c2ccc(C(=O)NCCCN3CCCCC3C)cc12` (stereo unspecified), the survival is inactive: 136%. Under `Cc1cc(C)c2[nH]c(=O)c(CN(CCN3CCOCC3)C(=O)Nc3ccc(F)cc3)cc2c1` stands inactive: 97%.

In the case of `CCc1c(C)sc(NC(=O)c2cc(-c3cccc(Cl)c3)on2)c1C#N`, the survival was inactive: 110%. As for `CCOC(=O)C1CCCN(c2cc(C)nc3c(-c4ccccc4OC)c(C)nn23)C1` (stereo unspecified), the figure is inactive: 74%; as for `CCCCN(CC)CCCNC(=O)c1nn(C)c2c1CS(=O)(=O)c1ccccc1-2`, inactive: 85%; as for `Cc1ccc(C)c(NC(=O)Cn2cc(C(=O)c3ccco3)c3ccccc32)c1`, inactive: 72%. Under `CCCCCOc1c(Cl)cc(C(=O)N(Cc2ccc(C)o2)C2CCS(=O)(=O)C2)cc1Cl` (stereo unspecified) stands inactive: 91%; under `CCCN(CCC)CCCNC(=O)C1CCN(S(=O)(=O)CC)CC1`, inactive: 120%.

With `COc1ccc(C)c2sc(N(Cc3cccnc3)C(=O)C3CCCCC3)nc12`, the survival was inactive: 51%. In the case of `CCCn1cc(S(=O)(=O)c2ccccc2)c(=O)c2cc(F)c(N3CCCC(C)C3)cc21` (stereo unspecified), the survival is inactive: 71%. As for `COc1ccc(C)cc1NC(=O)c1c(C)oc2ncn(CC(C)C)c(=O)c12`, the figure is inactive: 55%; as for `CCOC(=O)c1ccc(N2C(=O)c3n[nH]c(-c4ccco4)c3C2c2ccc(O)cc2)cc1` (stereo unspecified), inactive: 67%; as for `CC1=C(C(=O)Nc2ccccc2)C(c2cccnc2)n2nc(SCc3ccccc3Cl)nc2N1` (stereo unspecified), inactive: 163%. Under `CCOC(=O)Cn1c(=O)n(C2CCCCC2)c2nc(-c3cccc(F)c3)nc(C(N)=O)c21` stands inactive: 70%; under `Cc1ccc(CSCC(=O)N2CCN(c3ccccc3F)CC2)cc1`, inactive: 45%; under `Cc1ccc(S(=O)(=O)CC(=O)Nc2sc3c(c2C#N)CCCC3)cc1`, inactive: 123%. As for `CCn1cc(CCC(=O)NCc2ccccc2OC)c2ccccc21`, the figure is inactive: 76%; as for `CC(=O)NS(=O)(=O)c1ccc(N=NN2CCCCC2)cc1`, inactive: 133%; as for `O=C(Nc1ccc(Cl)cc1)N1CCC(c2nc(-c3ccc(F)cc3)no2)CC1`, inactive: 101%.

For `Cc1ccc(S(=O)(=O)c2cc3cc(C(=O)O)ccc3oc2=O)cc1`, the survival was inactive: 119%. Under `CCOC(=O)c1c(NC(=O)COc2cc(C)ccc2C(C)C)sc(C)c1C` stands inactive: 67%; under `O=C(O)CCCNC1C=CS(=O)(=O)C1` (stereo unspecified), inactive: 105%; under `CCOc1cccc(C(c2c(C)n(C)n(-c3ccccc3)c2=O)c2c(C)n(C)n(-c3ccccc3)c2=O)c1OC`, inactive: 78%.

With `CCOc1ccc(NC(=O)c2nn(C)c3c2CS(=O)(=O)c2ccccc2-3)cc1`, the survival is inactive: 83%. On to `Cc1cc2c(cc(C(=O)OC(C(=O)NC3CCCC3)c3ccccc3F)n2C)o1` (stereo unspecified), for which the survival was inactive: 137%. Take `O=c1[nH]nc(SCc2cccc3ccccc23)c(=O)[nH]1`: the survival is inactive: 114%. As for `COc1ccc(CCNC(=O)CCCn2c(=O)c3ccccc3n(CC(=O)Nc3cc(Cl)ccc3C)c2=O)cc1OC`, the figure is inactive: 88%. Under `CCOc1ccccc1NC(=O)Cn1c(=O)n(-c2ccc(F)cc2)c(=O)c2sc3ccccc3c21` stands inactive: 88%; under `Cc1ccc2nc(-c3cc(NC(=O)/C=C/c4ccccc4)ccc3Cl)oc2c1`, inactive: 65%. As for `O=C(Nc1cccc(OCc2cc(=O)n3c4c(sc3n2)CCCC4)c1)c1ccc(F)cc1`, the figure is inactive: 123%; as for `Cc1ccccc1-c1noc(CCC(=O)Nc2cccc(C)c2C)n1`, inactive: 90%. As for `CCC(=O)N1CCN(c2ccc(NC(=O)COc3ccccc3)cc2)CC1`, the survival is inactive: 106%. Under `Cc1ccc(S(=O)(=O)NCc2ccc(/C=C(/C#N)C(=O)NCc3ccccc3)o2)cc1` stands inactive: 114%; under `COc1cc(Cl)c(C)cc1NC(=O)c1cn(C2CCCC2)c(=O)c2c1c1ccccc1n2C`, inactive: 95%. As for `COc1ccc(C(=O)Nc2ccc3nc(N4CCC(C)CC4)cc(C)c3c2)cc1`, the figure is inactive: 86%.

With `O=C(c1cccc(Cl)c1)N1CCN(CCc2ccncc2)CC1`, the survival was inactive: 98%.

For the molecule `CCOc1ccc(-c2nnc(SCC(=O)NCCc3ccc(OC)c(OC)c3)nc2-c2ccc(OCC)cc2)cc1`, the survival is inactive: 73%. Turning to `CCC/C(O)=C1\C(=O)CC(C)(C)CC1=Nc1ccccc1OC`, the survival was inactive: 115%. Under `COc1ccc(Cl)cc1-n1c(/C=C/c2cccc3ccccc23)nc2ccccc2c1=O` stands inactive: 70%. Regarding `CCOCCCNC(=O)C(Cc1ccccc1)NS(=O)(=O)c1ccc2c(c1)c(=O)n(C)c(=O)n2C` (stereo unspecified), the survival is inactive: 77%. As to `COc1ccc(-c2nc(CSc3nncn4c3cc3occc34)c(C)o2)cc1`, the survival was inactive: 112%.

In the case of `O=C(Nc1ccc2c(c1)OCO2)c1ccccc1`, the survival is inactive: 117%.

Turning to `CC1CCN(S(=O)(=O)c2ccc(S(=O)(=O)N3CCCN(Cc4ccccc4)C3)cc2)CC1`, the survival was inactive: 107%.

Source of the values: PubChem BioAssay AID463173 (ICCB-Longwood Screening Facility, Harvard Medical School, 2010).
